Measured values taken from PubChem BioAssay (Tox21).
Values joined by “and” are separate entries in the source; they are usually repeats but may differ in a detail not shown here. Equal values may be shown once. This list was built around the results that the source calls inconclusive (neither active nor inactive); the mix of calls is not that of the screen. For some of these results: Potencies beside an inconclusive call are fits to weak or partial responses and may not hold up. Active and inactive are the calls of the source. Unless noted, calls follow the shape of the dose curve; as a rule, active = well fitted curve in the direction sought with a large enough effect in the repeat runs; inconclusive = weak or mixed curves; inactive = no such curve, though single readings can be large; an effect the other way counts as inactive or inconclusive.

Key:
[1] = target: Nuclear receptor ROR-gamma (Homo sapiens) (UniProt P51449); assay: qHTS assay to identify small molecule antagonists of the retinoid-related orphan receptor gamma (ROR-gamma) signaling pathway (AID 1159521; also: nearly all actives have a fitted effect of over 50% in size; also: potency is read from the fitted curve at half-maximal effect)
Outline: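 Cells were plated, rested 4 h at 37 C, exposed to compounds for 2 h, then given 1 uM final doxycycline hyclate to induce RORγ expression. After 16 h, ONE-Glo luminescence from the ROR response element reporter was measured.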

[2] = qHTS assay to identify small molecule agonists of the AP-1 signaling pathway (AID 1159526; calls by dose curve; also: potency is read from the fitted curve at half-maximal effect; as to activation: % is scaled to controls: 0 for no effect and ±100 for the full control effect); details: ME-180 (cervical carcinoma) AP-1-bla reporter, beta-lactamase FRET ratio, 5 h; activation: at 76.8 µM (top of the series) unless noted
[3] = target: Retinoic acid receptor RXR-alpha (Homo sapiens) (UniProt P19793); assay: qHTS assay to identify small molecule agonists of the RXR signaling pathway (AID 1159527; calls by dose curve; also: nearly all actives have a fitted effect of over 35% in size; also: potency is read from the fitted curve at half-maximal effect; as to activation: % is scaled to controls: 0 for no effect and ±100 for the full control effect); details: HEK293T RXRa-UAS-bla, beta-lactamase ratio, 16 h; activation: at 76.8 µM (top of the series) unless noted
Outline: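 Cells plated at 2,000/well, rested 5 hr at 37 C, pin-dosed with DMSO compound solutions, incubated 16 hr, then loaded with B/G FRET substrate for 2 hr at RT before dual-emission fluorescence reading.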

[4] = qHTS assay to identify small molecule agonists of the AP-1 signaling pathway - cell viability counter screen (AID 1159525; calls by dose curve; also: potency is read from the fitted curve at half-maximal effect; nearly all actives have a fitted effect of over 55% in size)
Outline: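 AP-1-bla ME-180 cells in Opti-MEM with 0.5% dialyzed FBS, compound exposure 5 h at 37 C in 15-point titration. Viability read in the same wells as ATP content by CellTiter-Glo luminescence, normalised to tetra-n-octylammonium bromide and DMSO controls.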

[5] = qHTS assay to identify small molecule agonists of the constitutive androstane receptor (CAR) signaling pathway - cell viability counter screen (AID 1224836); also: potency is read from the fitted curve at half-maximal effect; nearly all actives have a fitted effect of over 45% in size
Outline: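 Cells were seeded and incubated 4 hrs. Compounds were added across 15 concentrations together with PK11195 at 0.75 uM final. Plates were incubated 23 hrs at 37 C. CellTiter-Fluor was added and fluorescence measured.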

[6] = qHTS assay to identify small molecule agonists of the RXR signaling pathway - cell viability counter screen (AID 1159529); also: nearly all actives have a fitted effect of over 50% in size; also: potency is read from the fitted curve at half-maximal effect
Outline: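 Steps: seed RXR-alpha-UAS-bla HEK 293T cells in assay medium containing 2% charcoal-stripped FBS; incubate 5 hr; add compounds in DMSO; incubate 16 hr at 37 C; after the bla read, add CellTiter-Glo and read luminescence at 30 min.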

[7] = qHTS assay to identify small molecule agonists of the retinoic acid receptor (RAR) signaling pathway (AID 1159553); details: C3RL4 RARE luciferase reporter, agonist, 6 h; activation: at 73.3 µM (top of the series) unless noted; also: potency is read from the fitted curve at half-maximal effect; as to activation: % is scaled to controls: 0 for no effect and ±100 for the full control effect
Outline: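 Cell line C3RL4, RARE luciferase reporter. Treatment: compounds in DMSO, 6 hr, 37 C, 5% CO2, after overnight plating. Detection: luminescence, 30 min RT after reagent.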

[8] = qHTS assay to identify small molecule antagonists of the retinoid-related orphan receptor gamma (ROR-gamma) signaling pathway - cell viability counter screen (AID 1159520); also: nearly all actives have a fitted effect of over 50% in size; also: potency is read from the fitted curve at half-maximal effect
Outline: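 Tet-on ROR gamma CHO cells were given compounds for 2 hr, then doxycycline hyclate at 1 uM final, and incubated 16 hr at 37 C. Viability was measured as ATP content by CellTiter-Glo luminescence.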

[9] = qHTS assay to identify small molecule antagonists of the estrogen related receptor (ERR) signaling pathway from Tox21 library - cell viability counter screen (AID 1224834); also: potency is read from the fitted curve at half-maximal effect; nearly all actives have a fitted effect of over 30% in size
Outline: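 Viability readout (CellTiter-Fluor fluorescence, 30 min at 37 C) multiplexed with the ERR assay; cells treated 17.5 h at 37 C with compounds delivered in DMSO.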

[10] = qHTS assay to identify small molecule antagonists of the constitutive androstane receptor (CAR) signaling pathway - cell viability counter screen (AID 1224837); also: potency is read from the fitted curve at half-maximal effect; nearly all actives have a fitted effect of over 45% in size
Outline: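 Fluorescence from CellTiter-Fluor served as the viability signal. Human hepatoma HepG2 cells stably bearing hCAR and CYP2B6-2.2kb received compound plus CITCO (50 nM final) for 23 hr.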

[11] = qHTS assay to identify small molecule antagonists of the retinoid acid receptor (RAR) signaling pathway - cell viability counter screen (AID 1159551); also: % is scaled to controls: 0 for no effect and ±100 for the full control effect; nearly all actives have a fitted effect of over 35% in size
Outline: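 Following overnight attachment, C3RL4 reporter cells received DMSO-dissolved compounds and then retinol (1 uM final). Six hours later at 37 C, ATP content was measured by CellTiter-Glo luminescence.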

[12] = qHTS assay to identify small molecule antagonists of the retinoic acid receptor (RAR) signaling pathway (AID 1159552; also: potency is read from the fitted curve at half-maximal effect; nearly all actives have a fitted effect of over 50% in size)
Outline: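 Retinol at 1 uM final stimulated RARE-luciferase expression in C3RL4 cells exposed to test compounds for 6 hr at 37 C. Reduced luminescence, read 30 min after detection reagent, indicated pathway antagonism.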
Tags tell the direction and shape of the fitted curve or compound fluorescence and quenching.

Sequence of UniProt P19793 (P19793 whole entry, looked up): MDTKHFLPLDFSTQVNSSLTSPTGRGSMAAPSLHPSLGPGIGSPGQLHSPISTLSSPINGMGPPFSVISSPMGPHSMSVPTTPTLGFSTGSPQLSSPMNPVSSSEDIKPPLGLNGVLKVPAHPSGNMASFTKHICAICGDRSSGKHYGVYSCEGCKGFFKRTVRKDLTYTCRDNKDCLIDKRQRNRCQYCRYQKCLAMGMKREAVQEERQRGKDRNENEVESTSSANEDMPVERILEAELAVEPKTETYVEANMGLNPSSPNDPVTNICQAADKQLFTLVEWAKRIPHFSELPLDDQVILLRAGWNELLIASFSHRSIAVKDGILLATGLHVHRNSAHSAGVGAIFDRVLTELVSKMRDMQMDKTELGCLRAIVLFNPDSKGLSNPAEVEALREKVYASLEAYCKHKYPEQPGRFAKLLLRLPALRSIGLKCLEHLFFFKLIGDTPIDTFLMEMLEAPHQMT

N#CCCSCCC#N
Potency [1]: inconclusive: 27.3 µM [inhibitor, single point]

CCOC(=O)C(C)OC(=O)c1cc(Oc2ccc(C(F)(F)F)cc2Cl)ccc1[N+](=O)[O-] (configuration not stated)
Potency [1]: inconclusive: 30.5 µM [inhibitor, full curve] and inconclusive: 5.4 nM [inhibitor, full curve, poor fit]
Potency [2]: inconclusive: 54.7 µM [falling, partial curve, poor fit]
activation [3]: inconclusive: -0.299%

CCCN(CCC)CCc1c[nH]c2ccccc12
Potency [1]: inconclusive: 42.7 µM [inhibitor, partial curve, poor fit]
Potency [2]: active: 43.1 µM
Potency [3]: inconclusive: 54.2 µM [inhibitor, single point]

CC1(C)[C@H](/C=C2\CCSC2=O)[C@@H]1C(=O)OCc1coc(Cc2ccccc2)c1
Potency [1]: active: 27.3 µM
Potency [2]: inconclusive: 54.9 µM [falling, single point]

Cn1cc(C2=C(c3cn(C4CCN(Cc5ccccn5)CC4)c4ccccc34)C(=O)NC2=O)c2ccccc21
Potency [1]: inconclusive: 13.3 µM [inhibitor, single point]
Potency [4]: inconclusive: 3.79 µM [cytotoxic, partial curve, poor fit]
activation [2]: inconclusive: -12.9% [at 35.3 µM]
Potency [3]: inconclusive: 3.79 µM
Potency [5]: inconclusive: 26.6 µM [cytotoxic, partial curve]

O=C(O)CC[N+](=O)[O-]
Potency [1]: inconclusive: 70.8 µM [inhibitor, partial curve, poor fit] and inactive
Potency [2]: inconclusive: 63.6 µM [activator]
Potency [3]: inconclusive: 63.6 µM and inactive
Potency [6]: inconclusive: 50.5 µM [cytotoxic, single point]
Potency [7]: inconclusive: 17.8 µM [inhibitor, full curve]

COC(=O)c1cc(Oc2ccc(Cl)cc2Cl)ccc1[N+](=O)[O-]
Potency [8]: inconclusive: 77 µM [cytotoxic, partial curve, poor fit]
Potency [3]: inconclusive: 15.5 µM [inhibitor, full curve]
Potency [7]: inactive
Potency [9]: inconclusive: 54.5 µM [cytotoxic, partial curve, poor fit]
Potency [10]: inconclusive: 68.6 µM [cytotoxic, partial curve, poor fit]

CCC(C)(c1ccc(O)cc1)c1ccc(O)cc1
Potency [1]: inconclusive: 15.4 µM [inhibitor, full curve]
Potency [2]: inconclusive: 61.6 µM [partial curve, poor fit]
activation [3]: inconclusive: -40.6%
Potency [6]: inconclusive: 48.9 µM [cytotoxic, partial curve, poor fit]
Potency [9]: inconclusive: 68.6 µM [cytotoxic, single point]

CC(C)NC(=O)N1CC(=O)N(c2cc(Cl)cc(Cl)c2)C1=O
Potency [1]: inconclusive: 68.6 µM [inhibitor, single point]
Potency [2]: inactive
Potency [3]: inconclusive: 17.4 µM [rising, full curve]
Potency [6]: inconclusive: 21.9 µM [cytotoxic, partial curve, poor fit]

CN1CCc2cc3c(cc2C1O)OCO3 (configuration not stated)
Potency [8]: inactive
Potency [3]: inconclusive: 49.3 µM [fluorescent, partial curve]
Potency [6]: inactive
Potency [9]: inconclusive: 54.8 µM [rising, partial curve]
Potency [5]: inconclusive: 61.5 µM [rising, single point]
Potency [10]: inconclusive: 54.8 µM [rising, partial curve]

CC(C)(C)c1ccc(OP(=O)(Oc2ccccc2)Oc2ccccc2)cc1
Potency [1]: inconclusive: 15.4 µM [inhibitor, partial curve]
Potency [4]: inconclusive: 15.6 µM [cytotoxic, partial curve, poor fit]
Potency [3]: inconclusive: 4.39 µM [inhibitor, partial curve, poor fit]
Potency [6]: inconclusive: 11 µM [cytotoxic, partial curve, poor fit]
Potency [11]: inactive
Potency [12]: inconclusive: 54.8 µM [inhibitor, single point]
Potency [9]: inconclusive: 69 µM [cytotoxic, partial curve, poor fit]

CCOP(=O)(OCC)Oc1nc(Cl)c(Cl)cc1Cl
Potency [1]: active: 48.3 µM
Potency [2]: inconclusive: 10.9 µM [cytotoxic, partial curve]
Potency [3]: inconclusive: 30.7 µM [rising, partial curve]
Potency [6]: inconclusive: 19.4 µM [cytotoxic, partial curve, poor fit]

O=C(O)c1ccc(=O)[nH]c1
Potency [1]: inactive
Potency [2]: inactive
